Experimental data reported in the supplement of paper PMC3334620.
In all, about 33,000 sequences were measured (“E-score (-0.5 to 0.5)”: median about -0.011, highest 2% from about 0.28 on). Some of the results follow.

biological target: T1, Gcr1 (UniProt P07261); experiment: PBM E-score (8-mer binding enrichment) (E-score (-0.5 to 0.5)); higher = stronger / more preferred TF binding; most listed sequences are background and not binding sites; settings: protein concentration: 100 nM; construct: GST-full length
T1 sequence: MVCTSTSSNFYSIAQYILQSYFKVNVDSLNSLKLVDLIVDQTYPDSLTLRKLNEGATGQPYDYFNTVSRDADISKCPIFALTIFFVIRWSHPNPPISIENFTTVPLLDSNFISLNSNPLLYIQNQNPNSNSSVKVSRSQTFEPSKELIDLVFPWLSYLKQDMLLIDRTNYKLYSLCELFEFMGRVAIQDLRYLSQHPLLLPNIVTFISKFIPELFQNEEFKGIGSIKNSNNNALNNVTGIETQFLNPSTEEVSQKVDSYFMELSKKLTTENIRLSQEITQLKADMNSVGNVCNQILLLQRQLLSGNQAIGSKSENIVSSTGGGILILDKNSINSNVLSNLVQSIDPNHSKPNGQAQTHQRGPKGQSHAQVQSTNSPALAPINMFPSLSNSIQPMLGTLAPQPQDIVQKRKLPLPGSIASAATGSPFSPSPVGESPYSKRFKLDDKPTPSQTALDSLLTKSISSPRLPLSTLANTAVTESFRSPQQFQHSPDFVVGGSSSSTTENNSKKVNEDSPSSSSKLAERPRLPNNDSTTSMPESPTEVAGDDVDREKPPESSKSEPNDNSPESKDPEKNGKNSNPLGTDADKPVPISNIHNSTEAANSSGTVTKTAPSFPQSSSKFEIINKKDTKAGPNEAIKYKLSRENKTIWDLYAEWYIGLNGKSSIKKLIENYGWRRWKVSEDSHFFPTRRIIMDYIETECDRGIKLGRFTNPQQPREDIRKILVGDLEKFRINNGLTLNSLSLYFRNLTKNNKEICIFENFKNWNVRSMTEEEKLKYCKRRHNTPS
Outline: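 Yeast transcription factors, full-length or as DNA-binding domains, were expressed with a GST tag using PURExpress in vitro transcription/translation. At about 100-200 nM they were applied to universal all-10-mer Agilent arrays, double-stranded by primer extension on fresh or once-stripped slides. Fluorescent anti-GST detected bound protein, and masliner normalised the scans. E-scores for ungapped eight-base words, pooled with reverse complements, came from the Universal PBM Analysis Suite.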

Sequence | PBM E-score
CAGCTGAA | -0.00224
AGGAATTG | 0.00679
GGCCGCGA | -0.233
GTGATATA | -0.2
CACCTAGC | -0.182
ACTGAGTC | -0.0322
ATGAAGCC | 0.145
CGCACAAC | -0.138
TCTTCACA | 0.078
ATCTCCGA | -0.169
AACTGGAT | 0.278
AATCTATC | 0.0866
ACTGAGGC | -0.216
GAAGCGTA | 0.106
CGGTTATA | -0.0132
CTGCCCGC | -0.127
GCACGGGA | 0.0483
GACCTTTA | 0.0125
ATCCATCA | -0.0203
GGTCAGAC | -0.147
GCCTCTAA | 0.265
CGATAACC | -0.00227
CCTTTCCA | -0.17
CTTATCCC | 0.0307
CGTCGGGC | -0.21

Sequence | PBM E-score
GAACTAAC | -0.15
CAGTGCCC | -0.148
AATACTCC | -0.0742
GGCCATCA | -0.148
ACCTTCAT | -0.16
ACGCTAAA | -0.118
GATCTGAA | -0.0028
CAGTCGAA | 0.0113
AAGTTATT | 0.11
ATTTTGTC | 0.118
GGCGAGAC | -0.277
ATAGTTTC | -0.102
ACTAGATA | 0.111
CAATGTGG | 0.083
CAGTACGC | 0.0102
CTGACTCA | -0.106
CTGAAGCC | -0.0704
AATGGAAT | 0.301
CCTTTACG | -0.00275
GATGTCTA | 0.0157
CCTAGGAA | -0.0238
ATAAAGTG | 0.114
AATTGGAT | 0.0824
CAACTCCA | -0.0963
AACATCGC | -0.031

Sequence | PBM E-score
GCTTTGGA | 0.0838
ACGTCGCG | 0.16
GTCATAAA | -0.00707
GACGATCA | -0.159
CAAGTAGG | -0.0463
GACCTCTA | -0.149
AAACACGC | 0.191
AATAACTA | 0.102
CGTCGAGA | -0.163
CGGAGTAA | -0.0671
GACGTGGC | -0.143
AGAAATAT | 0.0324
CGGGACTC | 0.183
ATCCCTGG | -0.104
ATTAAAAT | 0.241
TAATAAGA | 0.115
CTTATTCA | -0.211
TCCCACAA | 0.193
CGGTAGTC | -0.169
GCAATGAC | -0.226
AAAACATT | 0.127
CCATTAAG | 0.128
TGTGCGAA | -0.121
AGCATCGA | 0.0648
AACATCTT | 0.109

Sequence | PBM E-score
AGGATAAT | 0.0746
ACCAGGCG | 0.0399
GAAGTCTA | -0.0939
ATGCAAGA | -0.00923
GGGTAAGA | 0.0267
GCCTACTA | 0.00583
ATTAGTTG | 0.188
CTAATACC | -0.152
ACTAGTCC | -0.0815
AACTCGCG | -0.148
ATAATAAA | 0.101
CGCTTTGA | -0.112
AGGGGACC | -0.0565
TACCATCA | -0.12
ACTCGGTC | -0.233
TAGACTCA | -0.0352
ACACCAGC | -0.126
ACGCTTAA | 0.0493
GCGCAAGC | -0.171
ACCGGTAT | 0.278
GTCCCCGA | 0.0179
CGACTCAA | -0.0878
CGACGTAA | 0.0282
ACTGCTAT | -0.225
CACAGCAA | 0.141

Sequence | PBM E-score
AGACATCG | -0.237
ATCCTGAA | 0.31
ATGCCAAA | 0.0279
CGATTACA | -0.0405
CGGTAAAC | 0.00368
AATGGCGC | 0.253
AAGGTGGA | -0.0451
GCAACGCA | -0.083
CTGGGTGA | -0.044
GGCGTGTA | 0.108
ATCGTAAA | 0.0285
GCAGCGCC | 0.28
ACGTAGCT | 0.282
AAGATAAC | -0.182
TGCCCTAA | -0.097
ACTTTTTA | 0.174
CGGTGTCC | -0.135
AAGAGGAC | -0.0984
CACATCAC | 0.0275
CTAAGTAC | -0.0637
AAAAAGAC | 0.123
AGCTGATA | 0.0575
TCAGACGA | -0.0961
ATCCTGTC | 0.266
AACATAGT | 0.00773

Sequence | PBM E-score
ATAGCTCA | -0.211
CACTAAGA | 0.243
CGGGCCAA | 0.00404
GCATAAAC | 0.149
ATGGTCCC | 0.112
CGGTACTC | -0.166
ATATTTAA | 0.111
GACATTGC | -0.328
CACCTTTC | -0.0358
AGAGCAAT | -0.123
AAGAGCGG | 0.0775
TCACCCGA | 0.0808
ACCTTCGG | -0.0792
CAATGTCC | -0.0164
CCATATTC | 0.00882
ATCAGCCC | -0.136
GGGCCACC | -0.0937
GCCTGAAC | -0.161
CCCTACGC | -0.279
CCCCACCC | 0.194
CTTCAGAA | 0.0728
GCTATAAC | 0.0513
AGGAAGGC | 0.224
AAAGGAAA | 0.0832
ATGTAACA | 0.0166

Sequence | PBM E-score
CTCGGCGA | 0.00588
GTGTTTCA | 0.138
GGGATTGA | 0.0727
CGGGGGGC | -0.139
CACGTGTC | -0.103
GGGCCCAA | 0.151
ACTCCAAC | -0.0952
GATCCTCC | -0.163
ACTCTAAT | -0.029
GCAGCAAA | 0.11
AGTTTTGA | 0.117
AAATCTAA | 0.143
AGAGGCCT | -0.0444
ATCGATGG | -0.104
AAGGTTGC | 0.261
GGCTCGAC | -0.209
GCCTCACC | -0.0647
CGCTTGGA | -0.0704
CAGTATGC | -0.0127
TATCTCGA | -0.115
AGTGTAAA | -0.00592
GGTATGCA | 0.0172
